“And” between values parts separate entries of the source, which are not always exact repeats. Equal values may be shown once. About 1,200 (2.5%) of roughly 48,000 compounds were called active. Another 2% or so got no clear call; they are omitted.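 The calls were made as follows: active = activation of at least 60% and not above a set upper limit (about 1 call in 100 departs from these limits); inconclusive = activation of 40% to 60%, or above that upper limit; inactive = activation under 40%.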 The list shows a part of the results.

UniProt O75388, sequence (O75388 whole entry, looked up): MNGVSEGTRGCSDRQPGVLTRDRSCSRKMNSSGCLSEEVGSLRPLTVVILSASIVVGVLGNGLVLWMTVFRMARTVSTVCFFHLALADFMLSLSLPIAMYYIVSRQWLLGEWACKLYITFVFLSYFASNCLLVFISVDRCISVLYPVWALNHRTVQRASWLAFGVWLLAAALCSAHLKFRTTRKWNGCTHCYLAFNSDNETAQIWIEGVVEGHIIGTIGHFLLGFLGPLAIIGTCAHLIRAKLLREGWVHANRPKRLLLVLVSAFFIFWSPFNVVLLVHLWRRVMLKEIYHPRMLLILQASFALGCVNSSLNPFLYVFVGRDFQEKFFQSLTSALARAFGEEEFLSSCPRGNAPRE

In this assay the target is Probable G-protein coupled receptor 32 (Homo sapiens) (UniProt O75388). Description: qHTS for Agonists of Human Resolvin D1 Receptor DRV1. Also: 0% is about no effect. To be noted: CHO-K1 GPR32 beta-arrestin PathHunter luminescence, 90 min; at 76.9 µM; active compounds read high; zero percent set by DMSO-only wells. A digest of the protocol:
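Step 1: seed CHO-K1 GPR32 beta-arrestin cells, 2,500/well, overnight at 37 °C. Step 2: add compounds, 90 min at 37 °C. Step 3: detection reagent, 1 h ambient, then luminescence.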
(Quantitative high-throughput screening tests each substance at several concentrations.)
Consider `O=C(c1ccco1)n1nc(-c2ccc(Cl)cc2)nc1NCc1ccccc1`, for which the activation is inactive: -7.92%.

For the compound `Cc1ccc(N2C(=O)NC(NS(=O)(=O)c3ccc(Cl)cc3)(C(F)(F)F)C2=O)cc1C` (stereo not drawn), the activation is inactive: 13.4%.

On to `CCCC(=O)N1CC(=O)Nc2ccc(Cl)cc2C1c1ccccc1` (stereo not drawn), for which the activation was inactive: -13.9%.

`CCC(Sc1ncnc2sc3c(c12)CCCC3)C(=O)OC(C)C` (stereo not drawn): the activation is inactive: -12.9%.

Consider `COc1ccc(S(=O)(=O)NCC(c2ccc(N(C)C)cc2)N2CCc3ccccc32)cc1` (stereo not drawn), for which the activation is inactive: -19.5%.

On to `Cc1cccc(C(=O)Nc2ccc(C(=O)OCc3cc(=O)n4nc(C5CC5)sc4n3)cc2)c1`, for which the activation is inactive: -5.91%.

For `COc1ccccc1N1CCN(C(=O)CCc2nnc3n(C)c(=O)c4sccc4n23)CC1`, the activation is inactive: 15.1%.

Take `COCCNC(=O)CSc1cn(CC(=O)N2CCCCCC2)c2ccccc12`: the activation was inactive: -24.8%.

Take `CCOc1ccc(OCC)c(NC(=O)C2CCN(S(=O)(=O)c3cn(C)cn3)CC2)c1`: the activation was inactive: -12.5%.

Take `Cc1ccc(NC(=O)C2CCCN2S(=O)(=O)c2ccc3nc(-c4ccccc4)[nH]c3c2)cc1F` (stereo not drawn): the activation was inactive: 47.1%.

`Cc1ccc(C)c(CSc2ccc3nnc(CCNS(=O)(=O)c4ccccc4)n3n2)c1`: the activation is inactive: 2%.

Consider `COc1ccc(OC)c(Nc2ncnc3c2cnn3-c2cccc(Cl)c2)c1`, for which the activation is inactive: -4.11%.

Consider `Cc1ccn2c(Nc3ccc(F)cc3)c(-c3ccccn3)nc2c1`, for which the activation is inactive: -64.1%.

As for `O=C(Cn1nc(-c2ccccc2)nc(Cc2ccccc2)c1=O)Nc1ccccc1`, the activation is inactive: -12.5%.

Regarding `CCCCC(=O)OC1=C(C(C)=O)N(Cc2ccccc2)S(=O)(=O)c2ccccc21`, the activation is inactive: -7.4%.

On to `CCOC(=O)c1cccc(NC(=O)CCc2c(C)nn(-c3ccc(N4CCCC4)nn3)c2C)c1`, for which the activation was inactive: -7.27%.

For the compound `Cc1ccc(OCC(=O)NCC2(N3CCOCC3)CCCCC2)cc1C`, the activation is inactive: -22%.

With `Cc1ccc(-c2nc3ccccc3s2)cc1NC(=O)COc1ccccc1`, the activation is inactive: 17.7%.

Turning to `CCOc1ccc(/C=C/c2nc(C#N)c(N3CCCCC3)o2)cc1`, the activation is inactive: -18.8%.

As to `CCCN(CCC)CCNC(=O)CN1C(=O)COc2ccc(S(=O)(=O)N3CCC(C)CC3)cc21`, the activation is inactive: -7.14%.

As for `CCCCN(CCCC)CCNC(=O)c1cn(CC)c2ccc(S(=O)(=O)N3CCc4ccccc4C3)cc2c1=O`, the activation was inactive: 12.1%.

For `Cc1oc(-c2cccc(Cl)c2)nc1CN1CCC(C(=O)NCCCN2CCN(c3ccccc3F)CC2)CC1`, the activation is inactive: -4.44%.

Turning to `CCOC(=O)CSc1nc2c([nH]c3ccccc32)c(=O)n1-c1ccc(OC)cc1`, the activation is inactive: -16.8%.

Take `CCOC(=O)Cn1nc(-c2ccccc2)c2cnc3ccc(OCC)cc3c21`: the activation was inactive: -7.6%.

Consider `O=C(CN(CCc1ccccc1)S(=O)(=O)c1ccc(Br)cc1)NCc1ccc(Cl)cc1`, for which the activation was inactive: -5%.

As to `CCC1CN(C(=O)C2CCN(S(=O)(=O)c3c(C)noc3/C=C/c3ccccc3F)CC2)c2cc(Cl)ccc2O1` (stereo not drawn), the activation is inactive: -23.8%.

On to `COc1ccc(N(Cc2cccs2)C(=O)c2ccc(Br)o2)cc1`, for which the activation was inactive: -30.7%.

With `COc1ccc(NC(=O)C2CCCN(S(=O)(=O)c3ccc4c(c3)CCCC(=O)N4)C2)cc1OC` (stereo not drawn), the activation is active: 63.4%.

Turning to `Cc1ccc2c(=O)cc(C(=O)Nc3ccc(S(=O)(=O)Nc4nc(C)cc(C)n4)cc3)oc2c1`, the activation was inactive: -8.46%.

`CCc1ccc(NC(=O)CSC2=Nc3ccccc3C3=NC(CC(=O)NC4CCCCC4)C(=O)N23)cc1` (stereo not drawn): the activation was inactive: -6.13%.

As for `CCCOC(=O)c1ccccc1`, the activation was inactive: 47.7%.

In the case of `CCOc1cc(C2C(C(=O)Nc3ccc(OC)cc3)=C(C)Nc3nc(SC)nn32)ccc1O` (stereo not drawn), the activation was inactive: -19.7%.

With `O=C(C1CCN(c2ncnc3c2nc2n3CCCCC2)CC1)N1CCN(c2ccc(F)cc2)CC1`, the activation is inactive: -4.19%.

For the compound `CC(C)CC(=O)Nc1ccc2nc(SCC(=O)N3CCCC3)sc2c1`, the activation was inactive: -1.24%.

Take `COc1ccc(NC(=O)N2CCc3c(sc4c3CCCC4)C2c2ccccc2OC)cc1` (stereo not drawn): the activation was inactive: -16.2%.

Regarding `CCOC(=O)c1c(C)sc(-c2c(-c3cc(C)ccc3C)[nH]c3c2c(=O)n(C)c(=O)n3C)c1O`, the activation was inactive: -39.6%.

Regarding `Cc1ccc(NC(=O)CCn2nc(C)c(S(=O)(=O)N3CCCCC3)c2C)cc1Cl`, the activation is inactive: 3.6%.

As for `CCOc1ccc(N(CC(=O)Nc2cc(C)ccc2C)S(=O)(=O)c2c(C)[nH]c(=O)[nH]c2=O)cc1`, the activation was inactive: -2.75%.

For the compound `CCN(c1ccc(C)cc1)S(=O)(=O)c1nnc(NC(=O)C2CCCCC2)s1`, the activation was inactive: -24.6%.

As to `CCCNC(=O)CSc1nc2ccccc2nc1Cc1ccc(Cl)cc1`, the activation was inactive: -1.35%.

Consider `Cc1ccc(C)c(CN2C(=O)c3ccccc3S(=O)(=O)c3ccc(C(=O)N4CCc5ccccc54)cc32)c1`, for which the activation was inactive: -25.9%.

In the case of `Cc1ccc(OCC(=O)NCC(c2ccc(Cl)cc2)N2CCCCC2)cc1` (stereo not drawn), the activation was inactive: -12.2%.

For the compound `CCC1=Nc2cc(C(=O)NCC(C)c3ccccc3)ccc2Sc2ccc(C)cc21` (stereo not drawn), the activation was inactive: -25.1%.

Consider `Cc1ccc(CCNC(=O)c2cn(C)c3ccc(S(=O)(=O)N(C)C4CCCCC4)cc3c2=O)cc1`, for which the activation is inactive: -8.65%.

Consider `COc1ccc(-n2c(C)c(C(C)=O)c3cc(OC(=O)c4ccc(C)cc4)ccc32)cc1`, for which the activation was inactive: 9.77%.

On to `CCOC(=O)c1ccc(OCC2c3cc(OC)c(OC)cc3CCN2C(=O)c2ccc(S(=O)(=O)N3CCCC3)cc2)cc1` (stereo not drawn), for which the activation was inactive: -2.78%.

In the case of `CCn1c(CNC(=O)c2ccc(OC)cc2)nnc1SCC(=O)Nc1ccccc1`, the activation is inactive: 22.1%.

On to `COC(=O)c1ccc(NC(=O)CCc2c(C)nc3c(-c4ccccc4)c(C)nn3c2C)cc1`, for which the activation is inactive: 22.7%.

Take `CN(C)CCCN1c2ccccc2Sc2ccc(C(F)(F)F)cc21`: the activation was inactive: 47.5% and inactive: -15.4%.

For the compound `CCOC(=O)Cn1c(=O)n(CC2CCCO2)c2nc(-c3ccccc3F)nc(C(N)=O)c21` (stereo not drawn), the activation is inactive: -13.4%.

Take `Cc1cccc(NC(=O)c2cc(S(=O)(=O)NCc3ccc4c(c3)OCO4)ccc2F)c1C`: the activation was inactive: -11.3%.

Take `Cc1ccc(Cn2cc(C(=O)c3ccc(F)cc3)c(=O)c3cc4c(cc32)OCO4)cc1`: the activation was inactive: 6.69%.

For `COc1ccc(CNS(=O)(=O)c2cc3c(cc2C)N(C)CCO3)cc1`, the activation was inactive: -3.81%.

On to `COc1ccc(Cn2c(CNS(=O)(=O)c3ccc(C)c(C)c3)nc3cccnc32)cc1`, for which the activation was inactive: -23.8%.

For `CCn1nnc2cc(C(=O)Nc3cccc(Cl)c3C)ccc21`, the activation was inactive: 1.42%.

Consider `COc1ccccc1-n1c(=O)c2c3c(sc2n(C)c1=O)CN(C(C)=O)CC3`, for which the activation is inactive: -0.951%.

For `CCOC(=O)Cc1ccc(NC(=O)Nc2ccccc2OCc2cc(=O)n3ccccc3n2)cc1`, the activation was inactive: -11.5%.

Take `O=C(NCc1ccc2c(c1)CCN2C(=O)c1ccccc1)Nc1cc(F)ccc1F`: the activation is inactive: -12.1%.

For `COc1ccc(-c2noc(-c3ccc(N4CCCC4)c([N+](=O)[O-])c3)n2)cc1`, the activation was inactive: 4.49%.

With `COc1ccc(C)cc1S(=O)(=O)NCC(c1cccs1)S(=O)(=O)c1ccc(C)cc1` (stereo not drawn), the activation is inactive: -27.7%.

Turning to `CC(Oc1ccc(F)cc1)C(=O)Nc1nc(-c2ccc(F)cc2)ns1` (stereo not drawn), the activation was inactive: 29%.

Take `CCN1CCN(c2ncnc3c2cnn3-c2ccc(C)c(Cl)c2)CC1`: the activation was inactive: 11.6%.

On to `COc1ccc(-c2nc3scc(CCNS(=O)(=O)c4ccccc4F)n3n2)cc1`, for which the activation is inactive: 16.2%.

On to `Cc1ccc(NS(=O)(=O)c2cnc(N)nc2)c(C)c1`, for which the activation is inactive: -16.4%.

As for `CCN(CC)CCNC(=O)C1CCN(c2cc(C)nc3c(-c4ccc(Cl)cc4)c(C)nn23)CC1`, the activation was inactive: -1.74%.

Turning to `O=C(NCCc1nc2ccccc2n1Cc1ccccc1)c1ccco1`, the activation is inactive: -17.2%.

For `Cc1nc(-n2nc(C)c(Cc3ccc4c(c3)OCO4)c2C)sc1C(=O)Nc1cccc(Cl)c1`, the activation is inactive: -16.2%.

As to `CCc1nn(CC(=O)Nc2cc(C)cc(C)c2)c(=O)c2cc3sccc3n12`, the activation is inactive: 5.65%.

For `CCN(CC)CCNC(=O)c1cc(-c2ccc(Br)s2)nc2ccccc12`, the activation is inactive: 12.6%.

Regarding `Cc1ccc(CN2CCCn3nc(C(=O)NCc4ccc(OC(C)C)cc4)cc3C2=O)cc1`, the activation was inactive: 24.9%.

As for `O=Cc1ccccc1C=O`, the activation is inactive: 6.35%.

On to `CCOc1ccccc1NC(=O)N1CCN(C)c2ncccc21`, for which the activation is inactive: 4.88%.

In the case of `Cc1ccc(NC(=O)CSc2n[nH]c(-c3ccc(F)cc3)n2)cc1F`, the activation is active: 66.8%.

In the case of `CSc1cccc(NC(=O)CC(c2cccs2)N2Cc3ccccc3C2=O)c1` (stereo not drawn), the activation was inactive: 2.71%.

`COc1cc(-c2noc(CN3CCN(c4cccc(Cl)c4)CC3)n2)cc(OC)c1OC`: the activation was inactive: 39.1%.

As for `CCOC(=O)c1cccc(NC(=O)c2ccc3nc(C(C)C)oc3c2)c1`, the activation is inactive: -19.8%.

Turning to `CSc1ccc(CCNC(=O)CCc2c(C)nc3c(c(C)nn3-c3ccc(C)c(C)c3)c2C)cc1`, the activation was inactive: 10.1%.

`CCC(C(=O)Nc1nnc2n1CCS2)c1ccccc1` (stereo not drawn): the activation was inactive: 18%.

As to `Cc1ccc(CN2C(=O)CN(C3CCC(C)CC3)C(=O)C2c2ccc(F)cc2)cc1` (stereo not drawn), the activation is inactive: -23.7%.

Take `O=C(Nc1cccc(Cl)c1Cl)c1cc2nc(-c3ccc(Cl)cc3)cc(C(F)(F)F)n2n1`: the activation is inactive: 12.5%.

Take `CCCN(CCC)CCNC(=O)c1cc2c(-c3ccc(Cl)cc3)nn(C)c2s1`: the activation is inactive: -5.37%.

In the case of `COc1ccc(Cn2c(=O)n(-c3ccccc3C)c(=O)c3c4c(sc32)CN(C(C)=O)CC4)cc1`, the activation was inactive: -18.8%.

As to `COc1ccc(-n2nc(C(=O)Nc3ccc(Cl)cn3)c3c4ccccc4n(C)c3c2=O)cc1Cl`, the activation was inactive: -1.45%.
